This is one part of the list.
tested on: T1, C. trachomatis L2/434/Bu expressing GFP (CTL2-GFP); parameters: species or system HeLa; C. trachomatis total inclusion area by high-content imaging, normalised to DMSO; settings: total inclusion area; 28.5 h, 10 µM; inhibitor
T1 construct: L2/434/Bu GFP intracellular growth in HeLa cells
Outline: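 Imaging read-out: GFP inclusions and Hoechst nuclei captured by high-content imaging after fixation. Inclusion area/number = chlamydial growth; nuclei count = host cell viability. MIC calculated per earlier method.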

Compound	% of control remaining
CCCCC12CN3CC(C)(CN(C1)C31C(=O)Nc3ccc(Br)cc31)C2=O (centres unmarked) [CBK267348]	99.2622
CCCc1[nH]ncc1C(=O)N1CCN(c2ccnc(N(C)C)n2)CC1 [CBK305406]	50.5434
NS(=O)(=O)c1ccc(S(=O)(=O)NCCc2c[nH]c3ccccc23)cc1 [CBK266691]	104.18
Cc1occc1C(=O)NC(C)c1ccc2c(c1)OCO2 (centres unmarked) [CBK268153]	101.322
CS(=O)(=O)N(Cc1ccccc1)c1ccc(C(=O)Nc2ccc(-c3ccccc3)cc2)cc1 [CBK262754]	88.8449
COc1ccc(CC(=O)Nc2ccc(-c3nnc(-c4ccccc4)o3)cc2)cc1OC [CBK267414]	102.032
O=C(c1cc(F)c(F)cc1F)N1CCC2(CCCN(Cc3cc(=O)[nH]c(=O)[nH]3)C2)C1 (centres unmarked) [CBK132010]	94.3384
Nc1ncc(-c2cncnc2)nc1N1CCOCC1 [CBK063422]	77.1302
C=CCSc1nc2sc3c(c2c(=O)[nH]1)CCCC3 [CBK287344]	97.6674
CCOC(=O)c1ccc(S(=O)(=O)Nc2cc(C(=O)O)ccc2F)cc1 [CBK295308]	113.648
COc1ccc(Cl)cc1S(=O)(=O)NC(C)C(=O)O (centres unmarked) [CBK270233]	75.5786
CCOC(=O)c1ccccc1NC(=O)N(Cc1ccc2ccccc2c1)CC1CCNCC1 [CBK049769]	87.2293
Cc1cc(OCC(=O)NCCCN2CCOCC2)cc(C)c1Br [CBK265082]	107.571
Cc1cccc(C)c1NC(=O)CCC(=O)OCc1ccccc1 [CBK267158]	89.2643
CC(C)(CC(=O)Nc1sc2c(c1C(=O)O)CCC2)CC(=O)Nc1sc2c(c1C(=O)O)CCC2 [CBK296100]	72.2615
CCC(CO)Nc1cncc(-c2cccs2)n1 (centres unmarked) [CBK065534]	89.1684
COc1cc(CN2CCC(C)CC2)c([N+](=O)[O-])cc1OC [CBK261911]	104.224
COC(=O)C1CCN(Cc2nc3sc4c(c3c(=O)[nH]2)CCC(C)C4)CC1 (centres unmarked) [CBK304978]	80.8826
Cc1noc(C)c1CC(=O)NC(C)c1nc2ccccc2s1 (centres unmarked) [CBK281467]	94.9319
CC(C)C(=O)Nc1cc2ccccc2c(-c2ccc(N(C)C)cc2)n1 [CBK085776]	84.9105
Cc1nn(C)c(C)c1CCC(=O)NCC(C)Oc1ccccc1F (centres unmarked) [CBK305194]	96.164
CN(CCNC(=O)Nc1ccc2c(c1)oc(=O)n2C)C1CCCC1 [CBK305503]	34.263
C(=N\N=C\c1ccccn1)/c1ccccn1 [CBK015627]	48.4731
O=C(NCc1ccccn1)c1cc2cc(Cl)ccc2[nH]1 [CBK107265]	92.2208
O=S(=O)(NCCSc1ccccn1)c1ccc(Br)cc1 [CBK264001]	111.788
COc1cc(/C=C/C(=O)NCc2ccccn2)cc(OC)c1OC [CBK264752]	105.47
CC(=O)c1cccc(NC(=O)N(Cc2ccco2)CC2CCCO2)c1 (centres unmarked) [CBK304467]	96.0473

Compound	% of control remaining
C#CCN(C1CCc2ccccc21)S(=O)(=O)c1cc(C(=O)NC)n(C)c1 (centres unmarked) [CBK306235]	80.3074
COc1ccc(C(NC(=O)CC2CCN(c3nc(C)cc(C)n3)CC2)C2CC2)cc1 (centres unmarked) [CBK285994]	122.01
Cc1ccc(S(=O)(=O)N2C[C@H]3C[C@H](NC(=O)C4CC4C)[C@H]3C2)cc1 (some centres unmarked) [CBK285318]	78.3698
CC(C)CC(=O)N1CCCn2nc(-c3ccncc3)cc2C1 [CBK288606]	110.758
c1ccc(C(CCN2CCC[C@@H]2CN2CCCC2)c2ccccc2)cc1 [CBK149109]	83.2129
Cn1ncc(N2CCC(CNC(=O)COc3ccccc3)C2)cc1=O (centres unmarked) [CBK306810]	80.7703
CN1CCN(CCC(=O)Nc2ccc(Cl)c(C(F)(F)F)c2)CC1 [CBK265995]	53.1995
COc1cccc(C(=O)N2CCC(Cc3ccc(-c4ccccc4)cc3)(C(N)=O)CC2)c1 [CBK285770]	89.4464
O=C(CSc1nc(-c2ccco2)cc(C(F)(F)F)n1)Nc1ccc(C(=O)N2CCCCC2)cc1 [CBK266238]	123.991
Nc1cc2ccccc2c(-c2cccc(C(F)(F)F)c2)n1 [CBK085721]	69.8088
Cc1cc(I)ccc1NC(=O)CCC(=O)N/N=C/c1ccco1 [CBK261991]	102.161
c1coc(-c2nc3cnccn3c2NC2CCCC2)c1 [CBK283678]	104.46
COC(=O)Nc1nc2cc(F)c(Cl)cc2[nH]1 [CBK026927]	19.8074
O=C(NCCc1ccc(Cl)cc1)C1CCN(C(=O)c2ccc3nsnc3c2)C1 (centres unmarked) [CBK285553]	106.529
CC(Oc1cccc(F)c1)C(=O)N(C)Cc1cccnc1 (centres unmarked) [CBK304841]	40.3506
Cc1cc(NC(=O)CS(=O)(=O)c2cccc(C(F)(F)F)c2)on1 [CBK306015]	111.365
CCn1c(N2CCCC(C(=O)NC3CC3)C2)nc2ccccc21 (centres unmarked) [CBK282419]	125.628
O=C(Nc1cc(NC(=O)C2C3C=CC(C3)C2C(=O)O)ccc1Cl)c1cccs1 (centres unmarked) [CBK263959]	100.289
COc1cc(C2N3CC4(C)CN2CC(C)(C3)C4=O)ccc1O (centres unmarked) [CBK261453]	91.6219
OCCc1ccc(Nc2cc(-c3ccsc3)ncn2)cc1 [CBK090769]	112.28
CCN1CCN(CCOc2c(OC)cccc2OC)CC1 [CBK267375G]	126.769
COc1ccc([C@@]23CC[C@@H](NC(=O)c4ccc5occc5c4)C[C@@H]2N(C)CC3)cc1OC [CBK074253T]	91.7523
COC(=O)c1sccc1NC(=O)c1ccccc1Cl [CBK066860]	91.8553
O=C(c1cccs1)N1C[C@H](c2ccc(F)cc2)[C@H]2CN(Cc3ccc(F)cc3)CC[C@H]21 [CBK285545]	94.9417
Cc1nn(CC(=O)N(C)C(C)c2ccncn2)c(=O)c2ccccc12 (centres unmarked) [CBK307669]	60.5107
CC(C)c1nc(NCc2nnc(C(C)C)n2C)nc(N(C)C)n1 [CBK306402]	70.7273
O=C1COc2ccccc2C/C=C/CC2(CCCN(C(=O)Cn3ccnc3)C2)CN1 (centres unmarked) [CBK292050]	78.2542

Compound	% of control remaining
CCC(NC1CCc2nc(COC)nn2C1)c1ccccc1O (centres unmarked) [CBK305132]	79.3306
O=C(Cc1cc(F)c(F)c(F)c1)Nc1ccc2[nH]ccc2c1 [CBK159684]	102.17
CC1CCc2c(sc(NC(=O)CCC(=O)O)c2C(=O)N2CCOCC2)C1 (centres unmarked) [CBK307550]	69.1245
O=[N+]([O-])c1ccccc1S(=O)(=O)N1CCN(S(=O)(=O)c2ccc(F)cc2)CC1 [CBK264236]	99.8038
O=C1c2ccccc2C(=O)N1CC1c2ccccc2CCN1S(=O)(=O)c1cccc2nsnc12 (centres unmarked) [CBK261133]	106.672
Cc1nn(C)cc1S(=O)(=O)Nc1cccc(-c2ccc(F)cc2)c1 [CBK282788]	78.2624
CCOc1ccccc1C(=O)Nc1cc(C)c2c(=O)oc3ccccc3c2n1 [CBK291240]	98.4995
O=C(C1CC1)N1C[C@@H](c2ccccc2)[C@H](c2cc(C(F)F)[nH]n2)C1 [CBK284791]	122.195
Cc1onc(-c2ccccc2Cl)c1C(=O)N(C)C [CBK160325]	146.606
O=C(Nc1ccccc1-n1cnnn1)c1ccccc1Cl [CBK287994]	118.294
CS(=O)(=O)N1CCCC(C(=O)Nc2nccs2)C1 (centres unmarked) [CBK287834]	71.4895
N#CCCN(C(=O)NCCCN1CCCC1=O)C1CCCCC1 [CBK156379]	105.638
O=C(Nc1ccc(C(=O)O)c(O)c1)c1ccc(Br)o1 [CBK270053]	99.5732
Brc1ccc2[nH]c3c(c2c1)CCOC31CCN(CC2CCCCO2)CC1 (centres unmarked) [CBK040648]	69.1981
Cc1ccc(NC(=O)Nc2cc(S(N)(=O)=O)ccc2C)cc1 [CBK093428]	91.678
CCc1nn(CC(=O)N(CC)CC)c(=O)c2cc3occc3n12 [CBK283656]	85.294
COc1ccc2c(c1)OC1(CCN(CC(O)c3ccc(-c4ccccc4)cc3)CC1)CC2O (centres unmarked) [CBK286346]	99.7914
COc1ccc2c(c1)c(C(NCc1cccc(C(F)(F)F)c1)C(N)=O)nn2Cc1ccccc1 (centres unmarked) [CBK010715]	16.3211
O=C(CN1C(=O)N2CCN=C2c2ccccc21)NC1CC1 [CBK283958]	71.2752
Cc1sc(NC(=O)CN(Cc2cnn(C)c2)C(C)C)c(C#N)c1C [CBK306303]	85.0704
COC(=O)c1sccc1NC(=O)Cn1nnc(-c2ccc(C)cc2)n1 [CBK267183]	125.01
COc1ccc(/C=N\N(C)c2nc(-c3ccccc3)cc(-c3ccc(Br)cc3)n2)cc1OC [CBK261799]	102.581
CCCCn1cnc2c(c1=O)c1nc3ccccc3nc1n2CCc1ccc(OC)cc1 [CBK269538]	71.7785
Cc1ccc(C(=O)NC(=S)Nc2cccc(NC(=O)c3ccccc3C)c2)cc1 [CBK264049]	108.384
c1ccc(NCCOc2nccnc2N2CCCC2)cc1 [CBK115814]	79.1792
Cc1coc(C)c1C(=O)CC1(O)C(=O)N(CCCC#N)c2ccccc21 (centres unmarked) [CBK307383]	61.8574
